Test results taken from US11912781B2, “Humanized complement 5A receptor 1 antibodies and methods of use thereof” (VISTERRA, INC., priority 2021, dated 2024).
Like-named read-outs stand apart in the source and are kept apart here.

Tests used:
[1] = Stability at 4° C., RT, 37° C. and freeze/thaw (HMW aggregates vs intact antibody); type: physicochemical
Protocol: Both monospecific and biparatopic antibodies were incubated at 4° C. for up to 14 days. After one thaw cycle at 37° C., the amount of intact antibodies were evaluated by gel filtration, native PAGE and dynamic light scattering (DLS).

[2] = tested on: U937-C5aR1 cells; assay: Binding to U937-C5aR1 cells; conditions: two antibody preparations
[3] = tested on: human neutrophils; assay: Binding to human neutrophils; conditions: two antibody preparations, read-out: EC50 of human neutrophil binding
[4] = tested on: hC5aR1 mice; assay: C5a-induced neutropenia in transgenic human C5aR1 mice; type: in vivo, mouse
Protocol: Briefly, five groups of hC5aR1 mice were evaluated for inhibition of neutropenia. In the first group, 5 hC5aR1 mice were injected with PBS (vehicle), intravenously. […] In the fourth group, 5 hC5aR1 mice were injected with non-C5aR1 antibody (Motavizumab) intravenously at a dose of 20 mg/kg. In the fifth group, 5 hC5aR1 mice were injected with avacopan at a dose of 30 mg/kg, intravenously. One hour after injection of the PBS, exemplary antibodies, motavizumab or avacopan, 0.1 mg/kg of human C5a was injected into the hC5aR1 mice. The blood was collected after 1 min, 5 min and 2 hr after injection of human C5a. The percent chance in neutrophils and average change in neutrophils were calculated in all three groups and are shown in FIG. 15B-15C. Neutrophil cell counts were assessed by gating CD45+/CD11b+/Ly6G+ cells.
The experimental details of this mouse in vivo assay are described in Example 11.
Table 19 summarizes the dosage regimen of the antibodies being tested, and the bleed times to determine neutropenia.

[5] = tested on: CD11b; assay: Inhibition of CD11b expression in neutrophils; type: cell-based, human; conditions: 100 nM C5a
Source text: CD11b, an integrin receptor, is mobilized to the surface of neutrophils in response to C5a activation and mediates intravascular crawling prior to neutrophil transmigration. CD11 is involved in numerous adhesion-related associations between cells such as monocytes, macrophages, natural killer (NK) cells, and granulocytes.
The experimental details of this determining CD11 expression are described in Example 5.

[6] = tested on: U937-C5aR1; assay: Kinetic binding assay on U937-C5aR1 cells
Source text: (§1) Exemplary kinetic assays for binding to C5aR1 expressing cells are shown in (FIG. 17B). Kinetic measures were fitted after a 2-3 dose association phase followed by dissociation.

[7] = Pharmacokinetics in human C5aR1 knock-in mice; conditions: mouse, in vivo
Protocol: 5 mg/kg of exemplary monospecific and biparatopic antibodies were injected intravenously into Tg32 mice. The amount of the antibody in the serum was evaluated over a period of 500 hours. […] FIG. 16B-16D show the stability of the anti-C5aR1 antibodies in the serum of 5 different mice for 500 hours. […] The tetravalent antibodies have slightly lower persistence in serum as compared to the monospecific antibody. Motavizumab was used as a control.
Target-Mediated Drug Disposition (TMDD) is evident for both exemplary C5aR1 antibodies with modified Fc domains. TMDD is the phenomenon in which a drug binds with high affinity to its pharmacological target site (such as a receptor) to such an extent that this affects its pharmacokinetic (PK) characteristics. The target binding and subsequent elimination of the drug-target complexes could affect both drug distribution and elimination, and result in nonlinearity of PK in a dose-dependent manner.
The target binding and subsequent elimination of the drug-target complexes could affect both drug distribution and elimination, and result in nonlinearity of PK in a dose-dependent manner. FIG. 30A-30F show antibody persistence was dose-dependent. […] FIG. 30F is in silico graphical representation of isotype control antibody over a period of 500 hours at a concentration of 20 mg/Kg. […]

[8] = tested on: neutrophils; assay: ROS production by neutrophils (Cellular ROS Detection Assay Kit); type: cell-based; conditions: ANCA− and ANCA+ groups
Protocol: ROS production by neutrophils was detected with a Cellular ROS Detection Assay Kit (Abcam) following manufacturer's manual. The RBC-lysed WB cells were diluted to the concentration of 3×10^5 cells in 100 mL buffer. Pre-treatment with ROS inhibitor (N-acetyl-L-cysteine) was carried out for the negative control group at 37° C., 5% CO2 for 30 minutes. ROS detection antibody then added into the antibody cocktail for flow cytometry-based detection of neutrophil ROS production. ROS inducer (pyocyanin) was added to all groups and incubated for 30 minutes prior to acquisition on the cytometer.
The experimental details of this determining ROS production are described in Example 7.

[9] = target: Macrophages; assay: Kinetic binding assay on macrophages
Source text: as §1

[10] = tested on: neutrophils; assay: Kinetic binding assay on neutrophils
Source text: as §1

[11] = tested on: C5aR1-U937 stable cells; assay: Chemotaxis of C5aR1-U937 stable cells (Boyden chamber); type: cell-based; conditions: 1 nM, 3.16 nM and 10 nM antagonist, increasing C5a
Protocol: First, C5aR1-U937 stable cells were seeded into the top chamber of a 96 Transwell plate in the presence of no antibody (antagonist), or of 1, 10, or 100 nM each antibody (antagonist). The bottom chamber contained a half-log titration of C5a (chemoattractant) ranging from 10^−6 to 10^−9.5 M. The top and the bottom chambers were separated by a membrane. C5a is expected to induce migration of U937 cells. However, use of a C5aR1 antagonist is expected to inhibit this migration. Increasing concentration of the exemplary antibodies were used to determine a dose-dependent inhibition of chemotaxis. Further, increasing concentration of the chemoattractant (C5a) was used to determine if the inhibition of chemotaxis was surmountable by using high concentration of C5a. In a parallel setting, a known C5aR1 inhibitor, Avacopan was also used to evaluate the inhibition of chemotaxis of neutrophils and surmountability of the chemotaxis in the presence of excess C5a.
The experimental details of this determining neutrophil chemotaxis are described in Example 4.

[12] = target: T1, C5aR2 (Homo sapiens, UniProt Q9P296); assay: ELISA binding specificity on immobilized C5aR2 VLP
T1 sequence (Q9P296 1-337): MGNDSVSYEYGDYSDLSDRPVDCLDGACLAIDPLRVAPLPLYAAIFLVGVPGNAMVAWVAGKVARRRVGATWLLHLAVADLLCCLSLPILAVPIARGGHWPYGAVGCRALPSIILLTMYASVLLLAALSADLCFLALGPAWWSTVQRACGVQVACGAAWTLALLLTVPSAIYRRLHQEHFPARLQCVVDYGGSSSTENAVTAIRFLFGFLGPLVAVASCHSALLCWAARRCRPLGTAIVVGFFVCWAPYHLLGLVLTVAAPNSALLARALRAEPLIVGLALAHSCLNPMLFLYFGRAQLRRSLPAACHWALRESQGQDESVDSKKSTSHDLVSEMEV
Protocol: The specificity of the C5aR1 antagonistic antibodies was determined by measuring the affinity of anti-C5aR1 antibodies to C5aR2. C5aR2 VLP were immobilized to a MaxiSorp ELISA plate at a concentration of 30 μg/mL and incubated overnight at 4° C. The following morning, plates were washed 3 times with 1× PBS and plates were blocked for 30 minutes with 100 μL of PBSA (1× PBS with 3% BSA). A serial titration of anti-C5aR antibody was performed in the presence of PBSA and incubated for 1 hour at room temperature. Plates were washed 6 times with PBSA. Anti-human-HRP was diluted in PBSA, added to all wells, and incubated for 45 minutes at room temperature. Plates were washed 6 times with PBS. TMB substrate was added to all wells and incubated for 10 minutes before the addition of stop solution (0.1 M sulfuric acid). Absorbance at 450 nm was measured on a standard plate reader. A four-parameter curve fit was used to generate the EC50 value of the antibody titration in nM.
The specificity of the Fc-modified C5aR1 antagonistic antibodies was determined by measuring the affinity of anti-C5aR1 antibodies to C5aR2. This was determined as described in Example 1.

B1: c2137-e1711: tetravalent biparatopic anti-C5aR1 antibody, Fab-Fc-linker-scFv; heavy chain SEQ ID NO: 12, light chain SEQ ID NO: 13 (antibody)
heavy: QVQLVQSGAEVKKPGASVKVSCKASGYTFTNYWMHWVRQAPGQGLEWMGYLNPSSGYTKYAQKFQGRVTMTRDTSTSTVYMELSSLRSEDTAVYYCTRSGGDNYGNPYYFDRWGQGTTVTVSSASTKGPSVFPLAPCSRSTSESTAALGCLVKDYFPEPVTVSWNSGALTSGVHTFPAVLQSSGLYSLSSVVTVPSSSLGTKTYTCNVDHKPSNTKVDKRV[human IgG4 Fc with S228P (EU numbers) omitted here]GGGGSEIVLTQSPATLSLSPGERATLSCRSSQSLVHSNGNTYLNWYQQKPGQAPRLLIYKVSNRLSGIPARFSGSGSGTDFTLTISSLEPEDFAVYYCSQSTHVPYTFGCGTKLEIKGGGGSGGGGSGGGGSGGGGSEVQLVESGGGLIQPGGSLRLSCAASGFTFNAYAMSWVRQAPGKCLEWVSSISTGGNTYYADSVKGRFTISRDNSKNTLYLQMNSLRAEDTAVYYCTRGYQRFSGFAYWGQGTLVTVSS
light: DVQMTQSPSSLSASVGDRVTITCRASQSIVHSNGNTYLHWYQQKPGKAPKFLIYKVSNRFSGVPSRFSGSGSGTDFTLTISSLQPEDFATYYCAQSTLVPLTFGQGTKLEIKRTVAAPSVFIFPPSDEQLKSGTASVVCLLNNFYPREAKVQWKVDNALQSGNSQESVTEQDSKDSTYSLSSTLTLSKADYEKHKVYACEVTHQGLSSPVTKSFNRGEC
[1]; 37 c. T1 day
  % HMW: 8.1%
  % Main: 91.9%
[1]; F/T 1 cycle
  % HMW: 8.1%
  % Main: 91.9%
[1]; T = 0 week, 2-8 C.
  % HMW: 8.5%
  % Main: 91.5%
[1]; T = 1 week, 2-8 C.
  % HMW: 8.4%
  % Main: 91.6%
[1]; T = 1 week, RT
  % HMW: 8.4%
  % Main: 91.6%
[1]; T = 2 week, 2-8 C.
  % HMW: 8.3%
  % Main: 91.7%
[1]; T = 2 week, RT
  % HMW: 8.3%
  % Main: 91.7%
[2]; listed as c2137-e1711 Prep 1
  EC50: 2.47 nM
[2]; listed as c2137-e1711 Prep 2
  EC50: 2.25 nM
[3]; listed as c2137-e1711 Prep 1
  EC50: 1.07 nM
[3]; listed as c2137-e1711 Prep 2
  EC50: 1.05 nM
[4]; hC5aR1 mice, 20 mg/kg IV
  inhibition of neutropenia: Complete inhibition
[5]
  IC50: 1.47 nM
[6]; U937-C5aR1
  Kd: ~1 nM
[6]; U937-C5aR1 cells
  EC50: ~1 nM
[7]
  Target-Mediated Drug Disposition (TMDD): TMDD observed
[8]
  inhibition of ANCA induced ROS production: inhibited ANCA induced ROS production
[9]
  EC50: ~0.5 nM
  Kd: ~0.6 nM
[10]
  EC50: ~1 nM
  Kd: ~2 nM

B2: c2137-e1711-Fcmod: biparatopic antibody with modified IgG4 Fc (F234V, L235E, D265G, S228P); heavy chain SEQ ID NO: 71, light chain SEQ ID NO: 72 (antibody)
heavy: QVQLVQSGAEVKKPGASVKVSCKASGYTFTNYWMHWVRQAPGQGLEWMGYLNPSSGYTKYAQKFQGRVTMTRDTSTSTVYMELSSLRSEDTAVYYCTRSGGDNYGNPYYFDRWGQGTTVTVSSASTKGPSVFPLAPCSRSTSESTAALGCLVKDYFPEPVTVSWNSGALTSGVHTFPAVLQSSGLYSLSSVVTVPSSSLGTKTYTCNVDHKPSNTKVDKRV[human IgG4 Fc with S228P F234V L235E D265G (EU numbers) omitted here]GGGGSEIVLTQSPATLSLSPGERATLSCRSSQSLVHSNGNTYLNWYQQKPGQAPRLLIYKVSNRLSGIPARFSGSGSGTDFTLTISSLEPEDFAVYYCSQSTHVPYTFGCGTKLEIKGGGGSGGGGSGGGGSGGGGSEVQLVESGGGLIQPGGSLRLSCAASGFTFNAYAMSWVRQAPGKCLEWVSSISTGGNTYYADSVKGRFTISRDNSKNTLYLQMNSLRAEDTAVYYCTRGYQRFSGFAYWGQGTLVTVSS
light: DVQMTQSPSSLSASVGDRVTITCRASQSIVHSNGNTYLHWYQQKPGKAPKFLIYKVSNRFSGVPSRFSGSGSGTDFTLTISSLQPEDFATYYCAQSTLVPLTFGQGTKLEIKRTVAAPSVFIFPPSDEQLKSGTASVVCLLNNFYPREAKVQWKVDNALQSGNSQESVTEQDSKDSTYSLSSTLTLSKADYEKHKVYACEVTHQGLSSPVTKSFNRGEC
[11]
  inhibition of chemotaxis in C5aR1-U937 stable cells: more potently inhibited chemotaxis than avacopan and anti-C5aR1 control Ab
[4]; hC5aR1 knock in mice, even at 0.1 mg/kg doses IV, vs vehicle
  inhibition of neutropenia at low dose: potently inhibited neutropenia
[12]
  binding to C5aR2: did not display affinity for C5aR2
